Among the data in the supplement of paper PMC4604168 (melanoma cell lines) are cell count values, retold here.

Molecules are shown by their SMILES. The list shows a part of the results. Repeats are few or missing, and single values can be far off.
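Note: cell number obtained by counting DAPI-stained nuclei in high-throughput microscope images with image analysis software, screen run in 1,536-well plates.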

This assay concerns IST-MEL1. Put plainly: cell count relative to DMSO control; melanoma cells; higher = more viable cells. Particulars: library dose: low library concentration; 72 h.
In the case of `CCN(CC)CCNC(=O)c1c(C)[nH]c(/C=C2\C(=O)Nc3ccc(F)cc32)c1C` [sunitinib] + Clc1ccc(Nc2nnc(Cc3ccncc3)c3ccccc23)cc1 [vatalanib] (first compound 0.4 µM, partner dose 2 µM), the cell count amounted to 88.5%.

Turning to `COc1cc([C@@H]2c3cc4c(cc3[C@@H](O[C@@H]3O[C@@H]5CO[C@@H](C)O[C@H]5[C@H](O)[C@H]3O)[C@H]3COC(=O)[C@H]23)OCO4)cc(OC)c1O` [etoposide] + Cn1c(Nc2ccc(C(F)(F)F)cc2)nc2cc(Oc3ccnc(-c4ncc(C(F)(F)F)[nH]4)c3)ccc21 [CHIR265] (first compound 0.02 µM, partner dose 0.08 µM), the cell count was found to be 85.8%.

Take `CCN(CC)CCNC(=O)c1c(C)[nH]c(/C=C2\C(=O)Nc3ccc(F)cc32)c1C` [sunitinib] + O=C(O)[C@@H]1[O][Sb](=[O])([O][Sb]2(=[O])[O][C@H]([C@H](O)CO)[C@H](O)[C@H](C(=O)O)[O]2)[O][C@H]([C@H](O)CO)[C@@H]1O [stibogluconate] (first compound 0.4 µM, partner dose 2 µM): the cell count came out at 105%.

In turn, `COc1cc([C@@H]2c3cc4c(cc3[C@@H](O[C@@H]3O[C@@H]5CO[C@@H](C)O[C@H]5[C@H](O)[C@H]3O)[C@H]3COC(=O)[C@H]23)OCO4)cc(OC)c1O` [etoposide] + Cc1nc(Nc2ncc(C(=O)Nc3c(C)cccc3Cl)s2)cc(N2CCN(CCO)CC2)n1 [dasatanib] (first compound 0.02 µM, partner dose 0.004 µM) had a cell count of 88.7%.
